# Source: PubChem BioAssay AID488969 (Vanderbilt High Throughput Screening Facility, 2010)
# In all, about 110,000 compounds were measured (“z-score”: median about -0.1, highest 2% from about 2 on). This is one part of the list. Active and inactive are the calls of the source.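 Rule for the calls: active = z-score in the third read window above 3 or below -3; inactive = the rest.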
# Biological target: Metabotropic glutamate receptor 8 (Rattus norvegicus) (UniProt P70579)
# Test: mGluR8 Gi/Go-coupled signaling modulation – cell-based, rat, thallium flux, HTS, primary screen (AID 488969)
# Settings: HEK293 rat mGluR8, GIRK (G protein-gated inwardly rectifying potassium channel) thallium flux, FluoZin2; at 10 µM; stronger effect = higher value; submaximal glutamate (EC20) added with thallium
# UniProt P70579, sequence (P70579 whole entry, looked up): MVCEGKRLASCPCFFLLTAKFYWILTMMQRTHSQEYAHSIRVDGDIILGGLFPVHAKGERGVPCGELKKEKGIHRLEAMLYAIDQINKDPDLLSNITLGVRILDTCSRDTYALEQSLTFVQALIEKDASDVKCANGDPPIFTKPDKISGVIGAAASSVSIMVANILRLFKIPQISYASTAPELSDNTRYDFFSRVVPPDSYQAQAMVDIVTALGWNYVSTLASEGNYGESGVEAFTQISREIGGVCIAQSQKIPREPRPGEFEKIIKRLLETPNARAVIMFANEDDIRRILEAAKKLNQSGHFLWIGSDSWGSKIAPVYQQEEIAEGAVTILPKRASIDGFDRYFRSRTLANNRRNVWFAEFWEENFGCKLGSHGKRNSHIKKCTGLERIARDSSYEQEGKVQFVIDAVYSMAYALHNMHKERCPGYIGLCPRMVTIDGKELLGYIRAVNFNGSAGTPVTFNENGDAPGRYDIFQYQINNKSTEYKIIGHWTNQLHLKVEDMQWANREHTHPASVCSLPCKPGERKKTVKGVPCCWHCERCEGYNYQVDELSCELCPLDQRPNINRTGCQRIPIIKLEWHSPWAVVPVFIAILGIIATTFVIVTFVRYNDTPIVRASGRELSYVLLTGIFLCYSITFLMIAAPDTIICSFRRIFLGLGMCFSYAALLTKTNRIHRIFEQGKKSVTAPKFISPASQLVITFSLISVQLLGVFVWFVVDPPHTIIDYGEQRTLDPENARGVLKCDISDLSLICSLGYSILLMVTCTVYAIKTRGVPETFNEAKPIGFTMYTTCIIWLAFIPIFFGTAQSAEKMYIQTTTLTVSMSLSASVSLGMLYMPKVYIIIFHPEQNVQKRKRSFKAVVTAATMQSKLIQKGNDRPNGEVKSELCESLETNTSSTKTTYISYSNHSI
row,SMILES,z-score
1,O=C1CC(Cc2ccc(Cl)cc2)C(=O)N1c1ccncc1 (configuration not stated),0.037
2,Cc1cc(C(=O)CSc2nnc(-c3ccncc3)n2-c2ccccc2)c(C)n1C,active: 4.58
3,CCOC(=O)c1ccc(-n2c(N)c(C(=O)NCC3CCCO3)sc2=S)cc1 (configuration not stated),0.547
4,O=C(C/C(=N\NC(=O)c1ccccc1Br)C(F)(F)F)c1cccs1,0.65
5,NC(=O)CCC(NS(=O)(=O)c1ccc(Cl)cc1)C(=O)NCc1ccccc1 (configuration not stated),-0.229
6,CC(C)(C)C1CCC(=NNC(=O)CN(c2ccccc2)S(C)(=O)=O)CC1 (configuration not stated),-0.0722
7,CCOc1ccccc1Oc1c(C)oc2c(CN3CCN(C)CC3)c(O)ccc2c1=O,0.544
8,O=C(Nc1ccc(Cl)cc1)OC(CN1CCCCC1)C(F)(F)F (configuration not stated),-0.481
9,COc1ccc(OC)c(NC(=O)Cc2nn(C)c(=O)c3ccccc23)c1,0.00504
10,O=C1OCCC1Sc1nc2ccccc2n1-c1ccccc1 (configuration not stated),-0.852
11,O=C(CSc1nnc(-c2ccc(Cl)cc2)n1Cc1ccco1)c1cccs1,-0.596
12,C=CCn1c(N)c(C(=O)NCCC2=CCCCC2)sc1=S,-0.423
13,O=C(c1ccccc1-c1ccccc1)N1CCOCC1,0.23
14,O=C(Oc1ccccc1Cl)c1ccccc1P(=O)(O)O,0.0445
15,CNCC(O)Cn1c(C(F)(F)F)nc2ccccc21 (configuration not stated),0.456
16,O=C(Nc1ccc(F)cc1F)c1cc2nc3c(c(C(F)(F)F)n2n1)CCCC3,-0.127
17,COC(=O)Nc1ccc(S(=O)(=O)Nc2cccc3ccccc23)cc1,-0.325
18,COc1ccccc1Cn1c(-c2ccccc2OC)nc2ccccc21,0.706
19,O=C1C(=Cc2ccco2)C(=O)c2ccccc21,-0.383
20,COC(C(=O)Nc1ccccc1F)c1ccccc1 (configuration not stated),-0.239
21,O=C(Cc1cc(=O)[nH]c(=O)[nH]1)N1CCC(Cc2ccccc2)CC1,-0.299
22,Cc1c(NC(=O)Nc2ccccc2)cccc1[N+](=O)[O-],0.571
23,O=C(NCc1cccnc1)c1sc2cc(Cl)ccc2c1Cl,-0.46
24,CSc1ccccc1NC(=O)CN(C)CC(=O)Nc1ccccc1F,-0.139

row,SMILES,z-score
1,O=C(Cc1cccs1)NCc1ccco1,0.0526
2,Cn1c2c(c(=O)n(C)c1=O)C(c1ccc(Cl)cc1)C(C#N)=C(N)O2 (configuration not stated),0.311
3,N#Cc1c(N)nc2c(c1N)CC(=O)N2c1ccc(Cl)cc1,-0.532
4,CCN(CC)CC(C)(C)NS(=O)(=O)c1ccc(Cl)cc1,-0.281
5,COc1ccc(N/N=C(\C#N)C(N)=O)cc1,0.451
6,N#CC1=C(Nc2ccccc2)SC=C(c2ccc(Cl)c(Cl)c2)N=C1N1CCOCC1,1.78
7,O=C(N/N=C/c1ccc(Cl)cc1)c1sccc1OCc1ccc(F)cc1,0.026
8,Cc1onc(-c2ccccc2Cl)c1C(=O)Nc1cccc(-c2cn3cccnc3n2)c1,-1.07
9,COc1ccccc1C1C2CCCCC2(O)CCN1CC(=O)Nc1ccccc1 (configuration not stated),-0.155
10,Cc1cccc(CCNS(=O)(=O)c2ccc3c(c2)oc(=O)n3C)c1,-0.127
11,COc1ccc(C(=O)Nc2cccc3cccnc23)cc1OC,-0.467
12,CCOC(=O)c1sc(NC(=O)C(CC)Sc2nccn2C)nc1C (configuration not stated),-0.124
13,CCc1ccc(NC(=O)C2CCN(S(C)(=O)=O)CC2)cc1,1.27
14,Cc1cc(C)c2cc(CN(CC3CCCO3)C(=O)NC3CCCCC3)c(=O)[nH]c2c1 (configuration not stated),-1.39
15,CCC(C)N1CCCCC1C(=O)Nc1c(C)cc(C)cc1C (configuration not stated),0.665
16,CCOC(=O)C1C(C#N)=C(N)OC(C)=C1c1ccncc1 (configuration not stated),-0.177
17,O=C(NCc1cccs1)Nc1cccs1,0.0933
18,C[C@H](C(=O)C=[N+]=[N-])N1C(=O)c2ccccc2C1=O,-0.275
19,COCC(=O)N/N=C(\C)CC(=O)Nc1ccccc1C(N)=O,-0.185
20,COc1ccc(S(=O)(=O)N2CCC(C(=O)N3CCOCC3)CC2)cc1OC,-0.172
21,O=C(CCN1C(=O)COc2ccccc21)NCCN1CCOCC1,0.151
22,Cc1ccc(-c2noc(CCC(=O)NCCCN3CCN(c4cccc(Cl)c4)CC3)n2)cc1,0.00656
23,CC(C)(C)c1ccc(NC(=O)COC(=O)CCN2C(=O)c3cccc([N+](=O)[O-])c3C2=O)cc1,0.0301
24,CCOC(=O)Cc1csc(NC(=O)Cc2ccc([N+](=O)[O-])cc2)n1,-0.174

row,SMILES,z-score
1,Cc1ccccc1/C=c1\s/c(=C\C(=O)C(C)(C)C)[nH]c1=O,active: 5.84
2,Cc1ccc(-c2csc3ncn(CC(=O)N4CCOCC4)c(=O)c23)cc1,0.838
3,COc1cc(C(=O)Oc2ccccc2/C=N/NC(=O)c2ccc(C)cc2)cc(OC)c1OC,-0.0934
4,COc1ccc(NC(=O)COC(=O)CC23CC4CC(CC(C4)C2)C3)c([N+](=O)[O-])c1,2.75
5,N#CC(C(=O)CCN1C(=O)C2CC=CCC2C1=O)c1nc2ccccc2[nH]1 (configuration not stated),0.0368
6,Cn1cccc1/C=C1\SC(=S)N(NC(=O)c2ccc(Cl)cc2)C1=O,-0.467
7,CCn1c(O)c(C2=NCCCC2)c2ccccc21,-1.5
8,COc1cccc(N2CCN(C(=S)Nc3cccc(C)c3)CC2)c1,-0.0313
9,O=C1C(C=NCc2ccncc2)=C(O)c2ccccc21,-0.586
10,CCOc1cc(C2C(C(=O)c3ccc(C)o3)=C(O)C(=O)N2CCc2ccccc2)ccc1O (configuration not stated),-0.129
11,O=c1[nH]c2cc3c(cc2cc1CN(CCO)S(=O)(=O)c1ccccc1Cl)OCCO3,-0.162
12,O=C1NC(=S)SC1=C1CCCCCC1,active: 17.1
13,O=C(NN=C1CCN(Cc2ccccc2)CC1)C(O)c1ccccc1 (configuration not stated),-0.114
14,O=c1c2ccccc2ncn1-c1ccc2c(c1)OCCO2,0.748
15,O=C1CCC(C(=O)OCc2c(Cl)cccc2Cl)N1 (configuration not stated),-0.132
16,CSc1nc2c(cnn2-c2ccc(C)c(C)c2)c(=O)[nH]1,0.821
17,CC1=CC(C)(C)n2c(O)c(N=NC(N)=S)c3cccc1c32,2.69
18,CCc1ccc(NC(=O)NCCN2CCc3ccccc3C2)cc1,-1.57
19,Cc1cccc(CSc2ncc(CO)n2C)c1,0.12
20,Cn1c(=S)[nH]c2[nH]c(=O)cnc2c1=O,-0.434
21,Cc1cc(C)nc(N2CCC(C(=O)Nc3ccc(Oc4ccccc4)cc3)CC2)n1,-0.163
22,Cc1c(Nc2nc(-c3ccccc3)cs2)c(=O)n(-c2ccccc2)n1C,-0.216
23,O=C(CSc1nc2ccccc2o1)N1N=C(c2cccs2)CC1c1ccc(F)cc1 (configuration not stated),-0.59
24,CC(C)CC(=O)Nc1nc2c(c(=O)[nH]1)CCCC2,-0.0333
